# Measurements taken from the supplement of paper PMC8728848.
# Some of the results follow.
# B1: TLEC1 (Arabidopsis thaliana), Q9C5Q9 (protein)
# chain: MSGASSVSSICSSNVSLIPTGPQVFINFRGKDLRKGFMSFLKPALKKEKINVFIDEQEERGKYLISLFDTIGESKIALVIFSEGYCESHWCMDELVKIKEYMDQNRLIIIPIFYRLDLDVVKDLTGKFGDNFWDLVDKYQPEPKKLHKWTEALFSVCELFSLILPKHSDISDRDFVKSIVKAVKKVQKNFFQRRNGEIEYQDFSVPACKLTITMHESPNEEAVQVTVLNEFYQMKNQSPVPSYEFKFWVDLTRPKGNVFMIDARDLSIAWSEDSNHWTWLPLPNQNSNESVMEIAFLKSASWLDVAGKFDTRYLTPRTRYEVVFVVKLEYTFEWETLVKLKLDLPNTWEKPQEQSVDMFDYISDQWLDIPVGEFTTSKKNVGEISFAMYEHECQLWKSGLFVKGVTIRPKY
# Assays:
# Test in all cases: glycan array binding signal (z-score within array); higher = stronger binding
# Conditions in all cases: glycan notation: IUPAC condensed, linker removed
# [1] = biological target: Fuc(b1-3)GlcNAc
# How it was run: (§1)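 Columns mapping to the same glycan were averaged after glycan names were converted to IUPAC-condensed notation. The data come from 3228 arrays in the Consortium for Functional Glycomics database, limited to those with an available protein sequence. Binding is reported as a within-array Z-score averaged across arrays of one protein sequence and across linkers.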
# [2] = biological target: Gal(a1-2)Gal
# How it was run: as §1
# [3] = biological target: Gal(a1-3)Gal
# How it was run: as §1
# [4] = biological target: Gal(a1-3)Gal(b1-3)Glc
# How it was run: as §1
# [5] = biological target: Gal(a1-3)Gal(b1-3)GlcNAc
# How it was run: as §1
# [6] = biological target: Gal(a1-3)Gal(b1-4)GlcNAc
# How it was run: as §1
# [7] = biological target: Gal(a1-3)Gal(b1-4)[Fuc(a1-3)]GalNAc
# How it was run: as §1
# [8] = biological target: Gal(a1-3)GlcNAc
# How it was run: as §1
# [9] = biological target: Gal(a1-3)[Gal(a1-4)]Gal(b1-4)GlcNAc
# How it was run: as §1
# [10] = biological target: Gal(a1-4)Gal(b1-4)Gal
# How it was run: as §1
# [11] = biological target: Gal(a1-4)Gal(b1-4)GalNAc
# How it was run: as §1
# [12] = biological target: Gal(a1-4)GlcNAc
# How it was run: as §1
# [13] = biological target: Gal(a1-6)Glc
# How it was run: as §1
# [14] = biological target: Gal(b1-2)Gal
# How it was run: as §1
# [15] = biological target: Gal(b1-3)Gal
# How it was run: as §1
# [16] = biological target: Gal(b1-3)GalNAc
# How it was run: as §1
# [17] = biological target: Gal(b1-3)GalNAc(b1-3)Gal(a1-4)Gal(b1-4)Glc
# How it was run: as §1
# [18] = biological target: Gal(b1-3)GalNAc(b1-3)Gal(b1-4)Glc
# How it was run: as §1
# [19] = biological target: Gal(b1-3)GalNAc(b1-3)Gal(b1-4)GlcNAc
# How it was run: as §1
# [20] = biological target: Gal(b1-3)GalNAc(b1-4)Gal(b1-4)Glc
# How it was run: as §1
# [21] = biological target: Gal(b1-3)GalNAc(b1-4)[Neu5Ac(a2-3)]Gal(b1-4)Glc
# How it was run: as §1
# [22] = biological target: Gal(b1-3)GlcNAc(b1-3)Gal(b1-3)GlcNAc
# How it was run: as §1
# [23] = biological target: Gal(b1-3)[Fuc(a1-4)]GlcNAc
# How it was run: as §1
# [24] = biological target: Gal(b1-3)[Fuc(a1-4)]GlcNAc(b1-3)Gal(b1-3)[Fuc(a1-4)]GlcNAc
# How it was run: as §1
# [25] = biological target: Gal(b1-3)[Fuc(a1-4)]GlcNAc(b1-3)Gal(b1-4)GlcNAc
# How it was run: as §1
# [26] = biological target: Gal(b1-3)[Fuc(a1-4)]GlcNAc(b1-3)Gal(b1-4)[Fuc(a1-3)]GlcNAc
# How it was run: as §1
# [27] = biological target: Gal(b1-3)[GlcNAc(b1-6)]GalNAc
# How it was run: as §1
# [28] = biological target: Gal(b1-3)[GlcNAc(b1-6)]GlcNAc
# How it was run: as §1
# [29] = biological target: Gal(b1-3)[Neu5Ac(a2-6)]GalNAc
# How it was run: as §1
# [30] = biological target: Gal(b1-3)[Neu5Ac(a2-6)]GlcNAc
# How it was run: as §1
# [31] = biological target: Gal(b1-3)[Neu5Ac(a2-6)]GlcNAc(a1-4)Gal(b1-4)Glc
# How it was run: as §1
# [32] = biological target: Gal(b1-3)[Neu5Ac(b2-6)]GlcNAc
# How it was run: as §1
# [33] = biological target: Gal(b1-4)GalNAc(a1-3)[Fuc(a1-2)]Gal(b1-4)GlcNAc
# How it was run: as §1
# [34] = biological target: Gal(b1-4)GalNAc(b1-3)[Fuc(a1-2)]Gal(b1-4)GlcNAc
# How it was run: as §1
# [35] = biological target: Gal(b1-4)Glc
# How it was run: as §1
# [36] = biological target: Gal(b1-4)Glc6S
# How it was run: as §1
# [37] = biological target: Gal(b1-4)GlcNAc
# How it was run: as §1
# [38] = biological target: Gal(b1-4)GlcNAc(b1-2)Man(a1-3)[Gal(b1-4)GlcNAc(b1-2)Man(a1-6)]Man(b1-4)GlcNAc(b1-4)GlcNAc
# How it was run: as §1
# [39] = biological target: Gal(b1-4)GlcNAc(b1-3)Gal(b1-3)GlcNAc
# How it was run: as §1
# [40] = biological target: Gal(b1-4)GlcNAc(b1-3)Gal(b1-4)Glc
# How it was run: as §1
# [41] = biological target: Gal(b1-4)GlcNAc(b1-3)Gal(b1-4)GlcNAc
# How it was run: as §1
# [42] = biological target: Gal(b1-4)GlcNAc(b1-3)Gal(b1-4)GlcNAc(b1-3)Gal(b1-4)GlcNAc
# How it was run: as §1
# [43] = biological target: Gal(b1-4)GlcNAc(b1-3)Gal(b1-4)[Fuc(a1-3)]GlcNAc(b1-3)Gal(b1-4)[Fuc(a1-3)]GlcNAc
# How it was run: as §1
# [44] = biological target: Gal(b1-4)GlcNAc(b1-3)GalNAc
# How it was run: as §1
# [45] = biological target: Gal(b1-4)GlcNAc(b1-3)[Gal(b1-4)GlcNAc(b1-6)]GalNAc
# How it was run: as §1
binder,measurement,setting,value
B1,glycan array binding signal (z-score),[1],-0.029
same,glycan array binding signal (z-score),[2],-0.074
same,glycan array binding signal (z-score),[3],0.303
same,glycan array binding signal (z-score),[4],-0.309
same,glycan array binding signal (z-score),[5],-0.213
same,glycan array binding signal (z-score),[6],-0.334
same,glycan array binding signal (z-score),[7],-0.25
same,glycan array binding signal (z-score),[8],-0.234
same,glycan array binding signal (z-score),[9],-0.228
same,glycan array binding signal (z-score),[10],-0.13
same,glycan array binding signal (z-score),[11],-0.13
same,glycan array binding signal (z-score),[12],-0.035
same,glycan array binding signal (z-score),[13],0.182
same,glycan array binding signal (z-score),[14],-0.119
same,glycan array binding signal (z-score),[15],0.513
same,glycan array binding signal (z-score),[16],-0.297
same,glycan array binding signal (z-score),[17],-0.327
same,glycan array binding signal (z-score),[18],-0.22
same,glycan array binding signal (z-score),[19],-0.008
same,glycan array binding signal (z-score),[20],-0.24
same,glycan array binding signal (z-score),[21],-0.315
same,glycan array binding signal (z-score),[22],-0.495
same,glycan array binding signal (z-score),[23],-0.291
same,glycan array binding signal (z-score),[24],-0.396
same,glycan array binding signal (z-score),[25],-0.113
same,glycan array binding signal (z-score),[26],-0.322
same,glycan array binding signal (z-score),[27],-0.317
same,glycan array binding signal (z-score),[28],-0.36
same,glycan array binding signal (z-score),[29],-0.439
same,glycan array binding signal (z-score),[30],-0.325
same,glycan array binding signal (z-score),[31],-0.426
same,glycan array binding signal (z-score),[32],-0.106
same,glycan array binding signal (z-score),[33],-0.265
same,glycan array binding signal (z-score),[34],-0.264
same,glycan array binding signal (z-score),[35],0.141
same,glycan array binding signal (z-score),[36],0.206
same,glycan array binding signal (z-score),[37],-0.385
same,glycan array binding signal (z-score),[38],-0.403
same,glycan array binding signal (z-score),[39],-0.374
same,glycan array binding signal (z-score),[40],-0.038
same,glycan array binding signal (z-score),[41],-0.527
same,glycan array binding signal (z-score),[42],-0.396
same,glycan array binding signal (z-score),[43],-0.111
same,glycan array binding signal (z-score),[44],-0.419
same,glycan array binding signal (z-score),[45],-0.464
